Data taken from PubChem BioAssay AID1345082 (National Center for Advancing Translational Sciences (NCATS), 2018).
The campaign covered roughly 94,000 compounds. About 4,000 (4.3%) were called active. The inconclusive results got no clear call from the source; some entries with a clear call stand among them for comparison. Calls come from the whole dose curve; as a rule, active = well fitted inhibition curve with a large enough effect; inconclusive = small, poorly fitted or top-dose-only effect; inactive = no such curve, though single readings can be large or run the other way. A potency beside an inconclusive call is a rough fit, not a confirmed value.

experiment: Cytotoxic Profiling in NIH 3T3 Cell Line of Diverse Libraries Using Quantitative High-Throughput Screening; settings: NIH 3T3 viability, CellTiter-Glo ATP luminescence, 48-72 h; activity change, negative = cytotoxicity: at 96.7 µM (top of the series) unless noted; series mostly up to 96.7 µM; note: nearly all actives have a fitted effect of over 55% in size
Summary of the method: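 Cells were seeded at 400 per well, treated with pin-transferred compound, and kept 48 or 72 hr at 37 °C before CellTiter-Glo addition and luminescence imaging of cellular ATP.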
% is set by controls: 0 for no effect and ±100 for the full control effect; potency is the fitted concentration of half-maximal effect; tags give direction and shape of the fitted curve.

Compound	Potency	activity change, negative = cytotoxicity	outcome
Cc1noc(-c2cn(C3CCN(C(=O)c4ccc(F)c(Cl)c4)CC3)nn2)n1	inconclusive: 35.5 µM [inhibitor, partial curve]		
Clc1ccccc1C1(c2ccnc(NCCc3cccnc3)n2)CCNCC1	inconclusive: 79.4 µM [inhibitor, partial curve, poor fit]		
N#Cc1ccc(CN2CCCCCCNC(=O)[C@@H]3CCC[C@@H]32)cc1		inactive: -25.6%	
COc1ccc2c(c1)CN(Cc1ccccc1)C(=O)CCN2C(C)=O	inconclusive: 79.4 µM [inhibitor, partial curve, poor fit]		
Cn1c2c(c3ccccc31)CN(C(=O)Nc1ccccc1F)CC2	active: 35.5 µM		
CC1=C[C@@H](CO)[C@H](C(C)C)C[C@H]1CC(=O)NCc1ccc(C(F)(F)F)cc1	inconclusive: 63.1 µM [inhibitor, full curve]		
Cc1cc(C)n(Cc2cc(C(=O)N3C[C@H]4CC[C@H]3C4)n[nH]2)n1			inactive
Cc1csc(NC(=O)[C@@H]2CCC[C@@H](NCC3CC3)CN(C)C(=O)C2)n1		inactive: -18.2% [at 174 µM]	
Cc1noc(C)c1[S+](=O)([O-])N1CCN(Cc2ccccc2-c2ccccc2F)CC1	inconclusive: 50.1 µM [inhibitor, partial curve, poor fit]		
COc1cccc(-c2ccc(CN3CCCC3C(=O)NC3CCC3)cc2)c1 (centres undefined)	inconclusive: 44.7 µM [inhibitor, partial curve, poor fit]		
CC1=C[C@@H](CNCc2ccccc2)[C@H](C(C)C)C[C@H]1Cc1nc2c(C)cccc2[nH]1	active: 28.2 µM		
COCCNc1ncc(-c2ccc(OC)c(OC)c2)c2c1OCC2	inconclusive: 50.1 µM [inhibitor, partial curve, poor fit]		
COc1ccc(-c2cc(N3CCC(NC(=O)CCCc4ccccc4)CC3)n[nH]2)cc1	inconclusive: 28.2 µM [inhibitor, full curve, poor fit]		
Cc1ccc(C(=O)NC2CCN(c3cc(-c4cccs4)[nH]n3)C2)cc1F (centres undefined)	inconclusive: 44.7 µM [inhibitor, partial curve, poor fit]		
Cn1ncc(N2CCC(NC(=O)C3CCOCC3)CC2)cc1=O		inactive: -26.4%	
CC(C)CCN1CC2(COCC(=O)N(Cc3cccc(OC(F)(F)F)c3)C2)C1	inconclusive: 89.1 µM [inhibitor, partial curve]		
CC1=C[C@@H](CC#N)[C@H](C(C)C)C[C@H]1CC(=O)NCc1ccc(F)cc1	inconclusive: 112 µM [inhibitor, partial curve]		
COc1ccc(F)c(CN2CCCC3(CCN(C(=O)C4CCCC4)C3)C2)c1 (centres undefined)	inconclusive: 89.1 µM [inhibitor, single point]		
CN(C)c1ccc(CN2CCC3(C2)C(=NC2CCCC2)NC(=O)N3c2cc(F)cc(F)c2)cc1 (centres undefined)	inconclusive: 70.8 µM [inhibitor, single point]		
COc1ccc(NC2CCCN(C(=O)C(C)(C)c3ccccc3)C2)cc1 (centres undefined)		inactive: -26%	
Cc1nn(-c2ccccc2)c2c1C(C1CC1)N(C1CN(C(=O)c3ccccc3F)C1)C2=O (centres undefined)	inconclusive: 56.2 µM [inhibitor, partial curve, poor fit]		
O=C(N[C@@H]1CCC[C@@H]1C(=O)N1CCCCCC1)c1ccncc1		inactive: -8.53%	

Compound	Potency	activity change, negative = cytotoxicity	outcome
O=C(c1ccc(Cl)nc1)N1CCCN(c2ccnc3ccnn23)CC1	inconclusive: 50.1 µM [inhibitor, partial curve, poor fit]		
Cc1c(-c2ccccc2)[nH]c2c(CNC(=O)Cn3ccc(=O)[nH]c3=O)cc(Cl)cc12	inconclusive: 89.1 µM [inhibitor, single point]		
O=C(Cn1c(=O)c2c(n1Cc1ccccc1)CN(Cc1ccccc1)CC2)NCc1cccc(Cl)c1	inconclusive: 56.2 µM [inhibitor, single point]		
O=C(COc1ccccc1)NC[C@H]1O[C@H](Cc2cc(CN3CCNCC3)on2)CC[C@@H]1O		inactive: 4.93%	
Cc1nc(CN2C(=O)OC3(CCN(C(=O)COc4ccccc4C(N)=O)CC3)C2(C)c2ccccc2)cs1 (centres undefined)	inconclusive: 44.7 µM [inhibitor, partial curve, poor fit]		
O=C(NC1CCN(C(=O)N2CC3CC(C2)[C@H]2CCCC(=O)N2C3)CC1)C1CCCCC1 (some centres undefined)			inactive
O=C(N[C@H]1CO[C@H]2[C@@H]1OC[C@@H]2n1nnnc1-c1ccc2c(c1)OCO2)c1ccccc1	inconclusive: 89.1 µM [inhibitor, partial curve, poor fit]		
COc1cccc(C(=O)N2CCN(C(=O)c3cccc(-c4ccccn4)c3)CC2)c1		inactive: -19.7%	
O=Cc1ccccc1-c1ccc(OC(F)(F)F)cc1	inconclusive: 141 µM [inhibitor, partial curve, poor fit]		
O=C(NCc1ccc(Cl)cc1)c1ccnc2[nH]ccc12	inconclusive: 44.7 µM [inhibitor, full curve]		
COc1ccc(-c2ccc3ncc(Nc4ccncc4)n3n2)cc1OC	active: 35.5 µM		
COc1cccc(N2CCN(c3nc(C(=O)NCc4ccncc4)cs3)CC2)c1	inconclusive: 50.1 µM [inhibitor, partial curve, poor fit]		
C[C@H]1CN(C(=O)C2CCCC2)C[C@@H]1c1nc(-c2ccccc2)no1	active: 31.6 µM		
COc1ccccc1CN1Cc2cc(NC(=O)C3CCCC3)ccc2OC(C)C1=O (centres undefined)	inconclusive: 50.1 µM [inhibitor, partial curve, poor fit]		
Cc1ccc(-c2cccc(CN3CCCC(NC(=O)Nc4ccc(Cl)cc4)C3)c2)cc1Cl (centres undefined)	inconclusive: 63.1 µM [inhibitor, partial curve, poor fit]		
Cc1noc(C)c1-c1cc2cc(CO)oc2c(NCCOc2ccccc2)n1	inconclusive: 56.2 µM [inhibitor, partial curve, poor fit]		
Cc1ncsc1CN1CCCCCCN(C)C(=O)[C@@H]2CCC[C@@H]21		inactive: 2.49%	
COc1cccc(C(=O)N2CCCC(C(=O)N3CCC(N4CCCC4=O)CC3)C2)c1 (centres undefined)		inactive: -21.1%	
COc1cc2c(cc1OC)C(CNC(=O)c1cccs1)N(C(=O)Nc1ccc(C)cc1)CC2 (centres undefined)	inconclusive: 44.7 µM [inhibitor, partial curve, poor fit]		
O=C(O)CNC(=O)CNC(=O)Cn1nc2c(cc1=O)CCCC2			inactive
O=C(c1ccc(-c2ncc3cnc(-c4ccccc4)cn23)cc1)N1CCS(=O)(=O)CC1	inconclusive: 31.6 µM [inhibitor, full curve]		
CC(C)CNC(=O)N1CCCC(c2nc(CCOc3ccc(F)cc3)no2)C1 (centres undefined)	inconclusive: 44.7 µM [inhibitor, partial curve, poor fit]		

Compound	Potency	activity change, negative = cytotoxicity	outcome
Cc1ccc(C(=O)N2CCc3sc(C(=O)NCCN4CCCCCC4)cc3C2)cc1	inconclusive: 70.8 µM [inhibitor, single point]		
COc1ccc(-c2nc(C(C)C)nc3c2CCN(C(=O)c2ccccc2)CC3)cc1	inconclusive: 70.8 µM [inhibitor, single point]		
O=C(c1n[nH]c2ccccc12)N1CC(c2nc(CCOCC3CC3)no2)C1		inactive: -14.7%	
O=C(c1ccc(Oc2ccccc2)cc1)N1CCOCC12CCN(Cc1ccccc1)CC2	inconclusive: 44.7 µM [inhibitor, partial curve, poor fit]		
CC(=O)N1CCCC(C(=O)N2CCC3(CC2)CC(=O)Nc2ccccc2O3)C1 (centres undefined)		inactive: -16.1%	
CN1Cc2cccn2CC1CNC(=O)c1ccccc1F (centres undefined)	inconclusive: 70.8 µM [inhibitor, single point]		
COc1ccc(-c2cnc(Nc3cc(F)cc(N4CCOCC4)c3)c3c2CCO3)cn1	inconclusive: 39.8 µM [inhibitor, partial curve, poor fit]		
COc1ccc(CC(=O)NC2CCN(C(=O)c3ccc(-c4cccs4)cc3)CC2)cc1	inconclusive: 50.1 µM [inhibitor, partial curve, poor fit]		
O=C(NCC1CCCO1)N1CCc2nc(-c3ccccc3)[nH]c2C1 (centres undefined)		inactive: -5.1%	
O=[S+]1([O-])NCC2(CCCN(Cc3ccc(Cl)cc3)C2)Oc2ncccc21 (centres undefined)	inconclusive: 50.1 µM [inhibitor, single point]		
Cc1ccc(NC(=O)N2CCCCCCNC(=O)CC2c2ccccc2)cc1C (centres undefined)	inconclusive: 56.2 µM [inhibitor, partial curve, poor fit]		
COc1ccc(CC(=O)NC2CCN(c3cc(-c4ccc(F)cc4)[nH]n3)C2)cc1 (centres undefined)	inconclusive: 7.08 µM [inhibitor, full curve, poor fit]		
O=C(C1CC=CC1)N1CCC(c2nc(CCOCC3CC3)no2)C1 (centres undefined)	inconclusive: 50.1 µM [inhibitor, partial curve, poor fit]		
CNC(=O)c1cc(C2CC2)nc2onc(C3CCN(C(=O)Nc4ccc(Cl)cc4)CC3)c12	inconclusive: 44.7 µM [inhibitor, partial curve, poor fit]		
O=C(c1ccccc1Cl)N1CCC2(CC1)C(=O)NCN2Cc1ccc(Cl)cc1			inactive
CC(C)S(=O)(=O)N1CCC2(CC1)CC(N(C)Cc1ccccc1)CCO2 (centres undefined)		inactive: -8.31%	
NCCC(=O)N1CCCC(N2CCN(Cc3ccc4c(c3)OCO4)CC2)C1 (centres undefined)		inactive: -4.49%	
COc1ccc(OC)c(-c2noc(Nc3cccc(F)c3)n2)c1		inactive: -12%	
COc1ccc(C(=O)N2CCOCC3(CN(Cc4ccccc4)C3)C2)cc1	inconclusive: 20 µM [inhibitor, full curve, poor fit]		
O=C1COc2ccc(N3CCOCC3)nc2CN1Cc1ccccc1F	inconclusive: 100 µM [inhibitor, single point]		
